# The other results are listed elsewhere or left out.
# Columns and labels:
# Experiment in all cases: glycan array binding signal (z-score within array); higher = stronger binding
# Settings in all cases: glycan notation: IUPAC condensed, linker removed
# [1] = molecular target: Neu5Gc(a2-8)Neu5Gc(a2-3)Gal(b1-4)GlcNAc(b1-3)Gal(b1-4)GlcNAc
# How it was run: (§1)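 Glycan array data were curated from 3228 arrays in the Consortium for Functional Glycomics database and kept only where the protein sequence was available. Glycan names were converted to IUPAC-condensed notation, and columns mapping to the same glycan were averaged. The binding signal is a within-array Z-score, averaged across arrays of the same protein sequence at different concentrations or buffers and across linkers. Negative Z-scores can be read as non-binding.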
# [2] = molecular target: Neu5Gc(a2-8)Neu5Gc(a2-6)Gal(b1-4)GlcNAc
# How it was run: as §1
# [3] = molecular target: Neu5Gc(b2-6)Gal(b1-4)GlcNAc
# How it was run: as §1
binder,measurement,setting,value
CvGal2 (Crassostrea virginica) (protein) MGSSHHHHHHSSGLVPRGSHMRIREAGKRKDTTKVYQIPDGLFPGQQVMLRGRVPWGSKSFSINFSATPRMGEGDILFHLNPRPSEGVCIRNALLNGSWGAEEKWQPYFPFDDGRSFSVKIEVTNDAFRTFVNGRPFVDFLHRTDFRAGKYLTLREGAEYYDVIFQSKPNIPLTTAIHNGMRIGKTIRIRGMCTAQDGFAINFNDNRNNIYFHFNARPAQRTVVRNSYFGSWGNEETAISKEFPFYPFLYFYASFVCMEDKFAVYVNDEHFIDFAHRGNPNNISVLQIKGSVNVLDTECLEPMGEDAMTEVDSGLENGDLFVLNGLMTERGKTFAVNFLNGFTENDDIALHFNPRKSTGEVVLNSRYGGAWQSEEKVALPGVFWSNRPLQVKVETKRNKFKIYVNGVDLAKYKIRGNVEDVHAVQVKGDVFLLETLLLKRLMKPVWERLTGGIRPGTWVTLQGTPKKNWQQFVVNFALDDTLDGDIAFHFNVRRGARQVVRNHRQSGAWGREETVTPFFAFDSEATFEIVFFVKEEKFLIYFNGKLFFEFVHRVPVERITHIYMDGDCNFYEPEVVI,glycan array binding signal (z-score),[1],-0.341
same,glycan array binding signal (z-score),[2],-0.329
same,glycan array binding signal (z-score),[3],-0.336

# — the supplement of paper PMC8728848
